Here are results for 70 compounds from PubChem BioAssay AID1240 (Sanford-Burnham Center for Chemical Genomics, 2008).

Hit rate of the full screen: of about 50,000 compounds, about 800 (1.6%) showed an effect of 50% or more. The list shows a part of the results.

The target in this experiment is Bcl-2-like protein 10 (Homo sapiens) (UniProt Q9HD36). The experiment in a line: TR3 peptide-Bcl-B binding displacers, biochemical primary FP assay, phenotype converters (AID 1240).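 Note: 0% = Bcl-B with tracer peptide and DMSO and 100% = tracer peptide lacking Bcl-B.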 To be noted: GST-Bcl-B / FITC-TR3 peptide fluorescence polarization; stronger effect = higher value; compound at 3.75 mg/L. (In general: Fluorescence polarisation rises when a labelled molecule tumbles more slowly, as on binding a larger partner.)
UniProt Q9HD36, sequence (Q9HD36 whole entry, looked up): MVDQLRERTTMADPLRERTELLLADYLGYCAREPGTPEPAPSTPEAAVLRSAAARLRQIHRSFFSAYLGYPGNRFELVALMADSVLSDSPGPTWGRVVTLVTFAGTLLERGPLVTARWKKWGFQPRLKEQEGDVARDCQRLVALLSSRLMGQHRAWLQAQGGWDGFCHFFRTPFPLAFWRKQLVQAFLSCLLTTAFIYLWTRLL
Consider `COc1ccc(S(=O)(=O)N(CC(=O)Nc2cccc(Cl)c2C)c2cc(C)cc(C)c2)cc1OC`, for which the displacement was -3.4%. To `O=S(=O)(c1ccc2ccccc2c1)n1nnc2ccccc21` belongs 10%; to `O=C(C(Sc1ccccc1)c1ccccc1)N1CCN(c2ccc(F)cc2)CC1` (stereo not given), 7.1%.

In the case of `Cc1ccc2[nH]c(C(=O)N/N=C/c3ccc(O)cc3O)c(-c3ccccc3)c2c1`, the displacement worked out at 24.1%. For the compound `CC(C)(C)N1C(=O)c2ccc(C(=O)Nc3ccc(I)cc3C(=O)O)cc2C1=O`, the displacement was -4%. Regarding `O=C(/C=C/c1ccc([N+](=O)[O-])cc1)NCCSCc1ccccc1Cl`, the displacement is -11.8%. As to `CC1(C)CC(=O)C(C2COC3=C2C(=O)CC(C)(C)C3)C(=O)C1` (stereo not given), the displacement was -0.8%. In the case of `Cc1cc(OCC(=O)Nc2ccc(-c3nc4ncccc4o3)cc2)ccc1Cl`, the displacement was determined as 27.1%. Regarding `Cc1cccc(C(=O)N2N=C3CCCCCC3C2(O)C(F)(F)F)c1O` (stereo not given), the displacement was 15.1%.

For the compound `CC1(C)Oc2ccc3ccc(=O)oc3c2/C(=N\O)C1=O`, the displacement came to 6%. For `CCOC(=O)c1c(N)sc(C(=O)Nc2ccccc2C(F)(F)F)c1C`, the displacement was -0.3%. On to `Cc1cc(C)cc(NC(=O)c2c(C)nc3ccccn23)c1`, for which the displacement was -3.9%. Consider `COC(=O)c1ccccc1NC(=O)c1oc2ccc(C)cc2c1C`, for which the displacement was found to be 4.6%.

`C(#Cc1ccc2noc(-c3ccccc3)c2c1)c1ccccc1`: the displacement is 44.1%. Regarding `CCOC(=O)C1=C(C)N=c2s/c(=C/c3ccc(F)cc3)c(=O)n2C1c1cccc([N+](=O)[O-])c1` (stereo not given), the displacement was found to be 7.1%. On to `NC(=O)c1cc(NC(=O)c2cccs2)c(Cl)cc1Cl`, for which the displacement was 3.2%.

For `Cc1cc(C)c2[nH]c(O)c(N=NC(=O)c3cccc([N+](=O)[O-])c3)c2c1`, the displacement is -0.6%.

As for `CC(=O)N1CCN(c2ccc(NC(=O)c3ccccc3Cl)cc2)CC1`, the displacement was 17.4%. `Cc1cccc(NC(=O)C2COc3ccccc3O2)c1` (stereo not given): the displacement is -5.9%. With `COC(=O)C(C)Oc1ccc2ccc(=O)oc2c1` (stereo not given), the displacement stood at 26.4%. To `CNc1nc(-c2ccccc2O)nc(-c2ccccc2O)n1` belongs -9.2%; to `CCOc1ccc2nc(SCC(=O)Nc3cccc(C)c3)sc2c1`, 6.5%. To `CC1=C(C(=O)Nc2ccc(C)cc2)C(c2ccc(C(C)C)cc2)NC(=S)N1` (stereo not given) belongs 8.7%; to `O=C(CCCN1C(=O)/C(=C/c2ccccc2)SC1=S)Nc1nccs1`, 11.2%. On to `O=C(NC(=S)Nc1ccc([N+](=O)[O-])cc1O)c1ccc(Br)cc1`, for which the displacement is 6.1%. As for `O=c1[nH]c(/C=C/c2ccc(O)cc2)nc2ccccc12`, the displacement worked out at 16.2%. In the case of `COCCNCC(=O)NCC12CC3CC(CC(C3)C1)C2`, the displacement is -14.7%. For `CCOC(=O)c1ccccc1NC(=O)COc1ccccc1`, the displacement stood at 3.4%.

Consider `CCCCCOC(=O)CCCN1C(=O)S/C(=C/c2ccc(OC)cc2)C1=S`, for which the displacement was -2.2%. As for `CCOC(=O)CONC(=NCc1ccccc1)c1nonc1N`, the figure is 3.6%; as for `O=[N+]([O-])c1ccc(-c2nnc(-c3ccc(Br)o3)o2)cc1`, 9.5%. To `O=[N+]([O-])c1ccc(-c2ncccc2O)cc1` belongs 11.9%.

Turning to `O=C(c1ccccc1)c1cccc(NC(=O)C2CCCCC2)c1`, the displacement was -0.3%. Turning to `Cc1cccc(-n2c(C)cc(/C=N/NC(N)=O)c2C)c1`, the displacement was -3%.

On to `O=C(Nc1ccc(N2CCOCC2)cc1)c1ccccc1Cl`, for which the displacement was found to be 7.2%. As to `CC1=C(C(=O)OCCc2ccccc2)C(c2cccs2)NC(=O)N1` (stereo not given), the displacement is 12.3%. Regarding `O=C1c2ccccc2C(=O)N1CCCc1nc2ccccc2c(=O)n1-c1ccncc1`, the displacement is 4.7%. To `COc1cc(C2NC(=S)NC(C)=C2C(=O)Nc2ccccc2)cc(OC)c1OC` (stereo not given) belongs 8.6%; to `COc1ccc(Cl)cc1NC(=O)C1=C(C)NC(=O)NC1c1ccccc1F` (stereo not given), 5.8%; to `O=C1/C(=C\c2cccc([N+](=O)[O-])c2O)SC(=S)N1c1ccccc1`, 1.8%. With `CN1C(=O)/C(=C/c2cc(Br)c(Br)o2)SC1=S`, the displacement turned out to be 17.3%. As for `Cc1cc(/C=N/NC(=O)Cn2c3ccccc3c(=O)c3ccccc32)c(C)n1-c1ccccc1`, the figure is -11.8%; as for `CC(=O)Oc1cccc(NC(=O)c2cccc(C(=O)Nc3cccc(OC(C)=O)c3)c2)c1`, -0.3%; as for `COc1ccc(NC(=O)Cn2nc(C(F)(F)F)c(Cl)c2C)cc1OC`, 7.1%. As for `Nc1nonc1-n1nnc(CN2CCOCC2)c1CN1CCOCC1`, the figure is 4.4%; as for `CC(=O)c1ccc(NC(=O)c2cnccn2)cc1`, 37.3%. As to `COc1ccccc1-c1cc(C)nc(N)c1C#N`, the displacement stood at 2.2%. As for `Cc1cc(Br)ccc1N1C(=O)/C(=C/c2cc(C)n(C)c2C)C(=O)NC1=S`, the displacement was found to be 3.9%. Turning to `CC(=O)Nc1ccc(S(=O)(=O)Nc2ccc(Nc3ccccc3)cc2)cc1`, the displacement was -5.9%. Regarding `Cc1ccc(-c2csc(/C(C#N)=C/c3sccc3C)n2)cc1C`, the displacement came to 11.7%. As to `COCCOC(=O)c1ccc(NC(=O)C2COc3ccccc3O2)cc1` (stereo not given), the displacement is -1.9%. As to `C/C(=N/NC(=O)CNc1ccccc1C)c1ccc(Br)cc1`, the displacement is -5.5%.

Consider `COc1ccccc1C(=O)NC1CC(C)(C)NC(C)(C)C1`, for which the displacement was -11.3%.

For `O=c1cc(-c2ccc([N+](=O)[O-])cc2)nc2cc(-c3cccs3)[nH]n12`, the displacement was found to be 49.7%. As for `CCn1c(C)nc2c(I)c(O)ccc21`, the figure is 2.8%; as for `Cc1cc(C)nc(/N=C(/N)Nc2ccccc2C(F)(F)F)n1`, 4.8%. For the compound `CCOc1ccc2nc(NC(=O)c3ccccc3-c3ccccc3C(=O)O)sc2c1`, the displacement is -12.3%.

As for `O=C(COc1ccc(Cl)cc1)NNC(=O)Cc1ccc([N+](=O)[O-])cc1`, the displacement was -11.3%. As for `Cc1nn(-c2ccccn2)c(C)c1Oc1ccccc1O`, the figure is -7.2%.

`CN(C)Cn1c(O)c(N=NC(=O)c2cccnc2)c2ccccc21`: the displacement was -5.2%. With `CCCCOC(=O)c1ccc(NC(=S)NC(NC(C)=O)C(Cl)(Cl)Cl)cc1` (stereo not given), the displacement is -10.6%. In the case of `CCC1=NN(C(=O)Cc2ccc([N+](=O)[O-])cc2)C(O)(C(F)(F)F)C1` (stereo not given), the displacement was found to be 6.6%. On to `COc1ccc(CN2CCN(Cc3ccncc3)CC2)cc1Br`, for which the displacement was 0.4%. `COc1ccc(C2=C/C(=C/c3cccs3)C(=O)O2)cc1`: the displacement stood at 7.8%. For the compound `CCOC(=O)/C=C/COc1ccc2oc(-c3ccccc3)c(C(=O)OCC)c2c1`, the displacement was found to be 8.8%. As for `Cc1cccc(NC(=O)C(=O)NCCCO)c1C`, the displacement worked out at 4.2%. For the compound `O=C(O)c1ccccc1C(=O)c1ccc(Cl)c(N2C(=O)C=CC2=O)c1`, the displacement amounted to 2.6%. With `CC(CNC(=O)C(c1ccccc1)c1ccccc1)c1ccccc1` (stereo not given), the displacement was -2.3%. As for `O=C(CN1C(=O)c2ccccc2S1(=O)=O)NC(Nc1ccc(I)cc1)C(Cl)(Cl)Cl` (stereo not given), the figure is 11.2%; as for `COCCN1C(=O)/C(=C2/C(=O)N(C)c3ccccc32)SC1=S`, -59.9%.
